In ChEMBL document CHEMBL4513135, “CO-ADD screening of IQOG CSIS (Spain) compounds”:
This is one part of the list. Potency and affinity values are given separately.

Each molecule was assayed on Pseudomonas aeruginosa. Details: Concentration 32 ug.mL-1; ASSAY_TEST Inhibition of Bacterial Growth; detection method Absorption (OD600); MEDIA CAMHB; plate type 384well; NBS; CORNING #3640; time 18 hr.

Row | Structure (SMILES) | Inhibition
1 | COc1ccccc1C1C(C#N)=C(N)Oc2c1ccc1ccccc21 (stereo unspecified) | 24.82%
2 | C1CNCCNCCNCCNC1 | 25.02%
3 | C#CCN1CCc2nc3nc(NC4CCN(Cc5ccccc5)CC4)c(C#N)cc3c(N)c2C1 | 9.07%
4 | N#Cc1c(N)nc(N2CCOCC2)c(C#N)c1-c1ccccc1 | 13.59%
5 | CCOC(=O)/C(=C\c1ccccc1)C(=O)c1ccccc1 | 13.68%
6 | N#CC1(Br)C(=NBr)Oc2c(ccc3ccccc23)C1c1ccc([N+](=O)[O-])cc1 (stereo unspecified) | -18.02%
7 | Cc1nc2c(cc1C#N)c(N)nn2C | 16.64%
8 | COc1ccccc1-c1c(C#N)c(=O)oc2c1ccc1ccccc12 | 13.43%
9 | Cc1ccc(C(O)SNNc2nc(C)nc3c2c(C)nn3-c2ccccc2)cc1 (stereo unspecified) | 24.28%
10 | COc1ccc(C2C(C#N)=C(N)Oc3c2ccc2ccccc32)cc1 (stereo unspecified) | 18.57%
11 | CC1=N/C(=C(\C)c2ccccc2)C(=O)O1 | 14.61%
12 | C#CCn1c(N)c(C#N)c2cc(O)ccc21 | 16.97%
13 | C#CCN(C)c1cc(Cl)nc(N)n1 | 14.05%
14 | Cc1ccc2nc(Cl)c(/C=N/NCc3ccccc3)cc2c1 | 0.5%
15 | CNCc1cc2cc(OCc3ccccc3)ccc2n1C.Cl | 29.95%
16 | Cc1ccc(C(O)SNNc2ncnc3c2c(C)nn3-c2ccccc2)cc1 (stereo unspecified) | 6.13%
17 | CCOC(=O)c1c(C)nc2nc3c(c(N)c2c1-c1ccccc1OC)CCCCC3 | 7.43%
18 | C/C=C(/C#N)C(=O)OC | 15.98%
19 | COc1cccc(C2C(C#N)=C(N)Oc3[nH]nc(C)c32)c1 (stereo unspecified) | 32.5%
20 | CCOC(=O)c1c(C)nc(NCC2CCN(Cc3ccccc3)CC2)c(C#N)c1-c1ccccc1 | -1.67%
21 | O=C(Cc1c[nH]c2ccccc12)NN=Cc1ccccc1 | 16.94%
22 | C#CCN(C)Cc1cc2cc(OCCCCC3CCN(Cc4ccccc4)CC3)ccc2n1C.Cl | 51.07%

Row | Structure (SMILES) | Inhibition
23 | COc1ccc(-c2cc(-c3cc4c(OC)ccc(OC)c4nc3Cl)cc(=O)[nH]2)cc1 | -3.34%
24 | Cn1ccnc1C1C2=C(CC(C)(C)CC2=O)Oc2nc3c(c(N)c21)CCC3 (stereo unspecified) | -1.43%
25 | O=C(N/N=C/Cc1ccccc1)c1cc2ccccc2[nH]1 | 36.99%
26 | O=C1SC(SCc2ccccc2)=NC1=Cc1cccc(OCc2ccccc2)c1 | -7.59%
27 | C=C1CN(C)c2c(C#N)c(-c3ccccc3)c(C#N)c(=O)n21 | 6.37%
28 | Br.C#CCNCc1ccccc1 | 2.67%
29 | COc1ccc(C=C2N=C(c3ccccc3)OC2=O)cc1 | 9.34%
30 | CSC1=NC2(CC2c2ccccc2)C(=O)N1 (stereo unspecified) | 46.96%
31 | Cn1c(C(=O)O)cc2cc(OCCCC3CCN(Cc4ccccc4)CC3)ccc21 | 25.39%
32 | CCOC(=O)CCc1c[nH]c2ccccc12 | 1.46%
33 | COc1cc(C2C(C#N)=C(N)Oc3ccc4ccccc4c32)ccc1O (stereo unspecified) | 8.4%
34 | COc1ccccc1C1c2ccc3ccccc3c2OC(=NBr)C1(Br)C#N (stereo unspecified) | 5.32%
35 | CCOC(=O)C1=C(C)NC(N)=C(C#N)C1c1ccc(OC)cc1 (stereo unspecified) | 12.75%
36 | COc1cccc(-c2c(C#N)c(=O)oc3c2ccc2ccccc23)c1 | -21%
37 | CCOC(=O)C1=C(C)Oc2nc3c(c(N)c2C1c1ccc(O)c(OC)c1)CCC3 (stereo unspecified) | 8.73%
38 | COc1cccc(C=C2N=C(c3ccccc3)OC2=O)c1OC(C)=O | 22.12%
39 | O=C(Cc1c[nH]c2ccccc12)N/N=C/c1ccco1 | 36.18%
40 | COc1ccccc1C1c2c(ccc3ccccc23)OC(=N)C1(Br)C#N (stereo unspecified) | 1.01%
41 | O=C1NC(=S)N/C1=C\c1ccccc1 | 38.25%
42 | COc1ccc(C2c3c(nc4c(c3N)CCCC4)Oc3ccc4ccccc4c32)c(OC)c1 (stereo unspecified) | 20.09%
43 | N#Cc1cc(C#N)c(N2CCCC2)nc1N1CCCC1 | 50.45%
44 | N#Cc1cc2c(N)c3c(nc2nc1Cl)CCCC3 | 20.75%

Row | Structure (SMILES) | Inhibition
45 | N#Cc1cc(C#N)c(NCc2ccccc2)nc1N | -21.9%
46 | CC(=O)Oc1ccc(C=C2N=C(C)OC2=O)cc1 | 32.36%
47 | C#CCN(C)c1ncc(C#N)c(N)n1 | 10.37%
48 | COc1ccc2cc(C3C(C(C)=O)=C(C)Oc4nc5c(c(N)c43)CCC5)c(Cl)nc2c1 (stereo unspecified) | 8.84%
49 | COc1ccc2c(c1)cc(C(=O)Nc1ccccc1)n2C | 8.89%
50 | CC(C)(C)OC(=O)N[C@H]1CC[C@H](O)CC1 | 10.73%
51 | c1ccc(CNc2ncnc3c2cnn3-c2ccccc2)cc1 | 10.11%
52 | COc1nc2nc3c(c(N)c2cc1C#N)CN(Cc1ccccc1)CC3 | 16.42%
53 | N#Cc1c(Cl)nc(N2CCCCC2)c(C#N)c1-c1ccccc1 | -7.48%
54 | O=Cc1ccc(OCCO[N+](=O)[O-])cc1 | 11.65%
55 | Cl.OCCCC1CCNCC1 | -20.82%
56 | N#Cc1c(N)nc(N)c(C#N)c1-c1ccccc1 | -7.53%
57 | COc1ccc2c(c1)cc(C(=O)O)n2C | 23.36%
58 | CC(C)(C)OC(=O)Nc1ccc(Cl)cn1 | 10.81%
59 | CCCC(C)NNC(=O)Cc1c[nH]c2ccccc12 (stereo unspecified) | 22.46%
60 | O=Cc1cc2ccccc2nc1Cl | 1.44%
61 | NNC(=O)CCc1c[nH]c2ccccc12 | 39.72%
62 | C#CCN(C)Cc1cc2cc(OC)ccc2n1C | 3.66%
63 | COc1ccccc1C1C(C#N)=C(N)Oc2ccc3ccccc3c21 (stereo unspecified) | 13.92%
64 | O=C1C=C(Nc2ccccc2)C(=O)N1c1ccccc1 | 11.12%
65 | Cl.N#Cc1cc(C#N)c(N2CCCC2)nc1Cl | 9.12%
66 | NC(=O)N/N=C/c1c[nH]c2ccccc12 | 34.82%

Row | Structure (SMILES) | Inhibition
67 | CC1Cc2c(nc3c(c2N)CCCC3)NC1=O (stereo unspecified) | 44.96%
68 | C#CCNC.O=C(O)C(=O)O | 3.05%
69 | CNCc1cc2cc(OC)ccc2n1C.Cl | 38.07%
70 | N#Cc1c(N)nc(O)c(C#N)c1-c1ccccc1 | 14.77%
71 | COc1ccc2cc(C3C4=C(CC(C)(C)CC4=O)Oc4nc5c(c(N)c43)CCCCC5)c(Cl)nc2c1 (stereo unspecified) | 5.01%
72 | CC(=O)NCCc1ccccc1 | 15.71%
73 | CCOC(=O)c1cc(C#N)c(N)nc1C | 7.6%
74 | Nc1c2c(nc3nc4ccccc4nc13)CCCC2 | -1.02%
75 | C#CCN(C)Cc1cc2cc(OCCCC3CCN(Cc4ccc(C#N)cc4)CC3)ccc2n1C | 10.58%
76 | CC(=O)O[C@H]1CC[C@H](NC(=O)c2ccccc2)CC1 | 30.15%
77 | O=C(NNCc1c[nH]c2ccccc12)c1cccc2ccccc12 | 19.22%
78 | CN1C/C(=C\Br)n2c1c(C#N)cc(C#N)c2=O | 1.74%
79 | C#CCN1CCc2nc3nc(N4CCCC4)c(C#N)cc3c(N)c2C1 | 27.54%
80 | O=C(N/N=C/c1ccc([N+](=O)[O-])cc1)c1cc2ccccc2[nH]1 | 30.81%
81 | CCC(CC)NNC(=O)c1c[nH]c2ccccc12.Cl | 30.6%
82 | C#CCN(C)c1nc(OC)c(C#N)cc1C#N | 9.36%
83 | N#CC1=C(N)Oc2ccc3ccccc3c2C1c1cccc([N+](=O)[O-])c1 (stereo unspecified) | 13.73%
84 | N#Cc1c(Cl)nc(Cl)c(C#N)c1-c1ccccc1 | 1.7%
85 | Cc1nn(-c2ccccc2)c2ncn3nc(-c4ccccc4)nc3c12 | 23.31%
86 | N#CC1(Br)C(=NBr)Oc2c(ccc3ccccc23)C1c1ccccc1[N+](=O)[O-] (stereo unspecified) | 32.2%
87 | CC1=NC(=Cc2ccccc2)C(=O)S1 | 24.56%
88 | Cl.ClCCCC1CCNCC1 | 9.84%

Row | Structure (SMILES) | Inhibition
89 | Cc1ccc(C=C2N=C(c3ccccc3)OC2=O)cc1 | 17.23%
90 | COc1cccc(C2C(C#N)=C(N)Oc3c2ccc2ccccc32)c1 (stereo unspecified) | 30.49%
91 | CCC(Cc1ccccc1)NNC(=O)c1cc2ccccc2[nH]1 (stereo unspecified) | 1.16%
92 | COc1cc(Br)c(C=O)cc1OC | 17.32%
93 | COc1ccccc1C1C(C#N)=C(N)Oc2[nH]nc(C)c21 (stereo unspecified) | -5.23%
94 | N#Cc1c(N)nc(NCc2ccccc2)c(C#N)c1-c1ccccc1 | 3.37%
95 | CNC(=O)c1cc2cc(OCc3ccccc3)ccc2n1C | 21.94%
96 | COC(=O)C(NC(=O)c1ccccc1)=C(C)c1ccccc1 | 45.08%
97 | COc1ccc2cc(C3C(C(C)=O)=C(C)Oc4nc5c(c(N)c43)CCCCC5)c(Cl)nc2c1 (stereo unspecified) | 6.12%
98 | CCOc1nc(N)c(C#N)cc1C#N | 2.22%
99 | C#CCN(C)c1cc(C)nc(C)n1 | 37.32%
100 | Cc1[nH]nc2c1C(c1ccc(O)c(O)c1)C(C#N)=C(N)O2 (stereo unspecified) | 33.68%
101 | Cc1ccccc1-c1c(C=N)c(N)nc2c1S(=O)(=O)OC2(C)C | 38.2%
102 | C#CC[n+]1ccccc1N.[Br-] | -1.42%
103 | CSC1=NC(=Cc2ccccc2)C(=O)N1C | -3.84%
104 | Cl.N#Cc1c(N)nc(NCCO)c(C#N)c1-c1ccccc1 | -8.51%
105 | CC(=O)NC=C1C(=O)OC(C)(C)OC1=O | 34.55%
106 | CC1=C(C(=O)O[C@@H]2C[C@@]3(C)CC[C@H]2C3(C)C)C(c2ccccc2)C(C#N)=C(N)O1 (stereo partly specified) | -21.72%
107 | COC(=O)C(=Cc1ccc(OC)cc1)NC(C)=O | 39.27%
108 | N#Cc1cc(Br)cc(Br)c1N | -3.17%
109 | C=C1CN(Cc2ccccc2)c2c(C#N)c(-c3ccccc3)c(C#N)c(=N)n21 | 8.72%
110 | Cn1c(CNNC(=O)Cc2cccc3ccccc23)cc2ccccc21 | 3.2%

Row | Structure (SMILES) | Inhibition
111 | O=C1OC(c2ccccc2)=NC1=Cc1ccc(Cl)cc1 | 20.55%
112 | CC(C(=O)O)c1c[nH]c2ccccc12 (stereo unspecified) | 49.12%
113 | C#CCN(C)c1nc(NCCCC2CCN(Cc3ccccc3)CC2)c(C#N)cc1C#N | -3.53%
114 | C#CCNc1[nH]c2ccc(O)cc2c1C#N | 22.49%
115 | COc1ccc(C2c3c(ccc4ccccc34)OC(=N)C2(Br)C#N)cc1 (stereo unspecified) | 21.31%
116 | CCOc1nc2nc3c(c(N)c2cc1C#N)CCCC3 | 9.45%
117 | CCOC(=O)C1=C(C)Oc2nc3c(c(N)c2C1c1ccccc1OC)CCC3 (stereo unspecified) | 42.21%
118 | COc1cc(CCC(N)=O)ccc1O | 17.72%
119 | Cl.ClCCCN1CCCC1 | 11.03%
120 | C#CCN(C)c1nc(Cl)c(C#N)c(-c2ccccc2)c1C#N | 8.09%
121 | O=C(N[C@H]1CC[C@H](O)CC1)c1ccccc1 | 23.83%
122 | O=C1NC(=S)N/C1=C\c1c[nH]c2ccccc12 | 14.28%
123 | COc1nc(N)c(C#N)c(-c2ccccc2)c1C#N | 6.09%
124 | COc1ccc(C2c3c(ccc4ccccc34)OC(=N)C2(Br)C#N)cc1OC (stereo unspecified) | -6.04%
125 | N#Cc1c(N)nc(N2CCC(Cc3ccccc3)CC2)c(C#N)c1-c1ccccc1 | -2.05%
126 | Cc1[nH]nc2c1C(c1cccc([N+](=O)[O-])c1)C(C#N)=C(N)O2 (stereo unspecified) | 39.5%
127 | N#CC1=C(N)Oc2ccc3ccccc3c2C1c1ccccc1 (stereo unspecified) | 16.85%
128 | N#Cc1cc2c(N)n[nH]c2nc1N | 20.33%
129 | CC(=O)Oc1ccc(C=C2N=C(c3ccccc3)OC2=O)cc1 | -1.77%
130 | OCc1c(-c2ccc(Br)cc2)nc2ccccn12 | 21.78%
131 | Cc1nc2c3cnn(-c4ccccc4)c3nc(C)n2n1 | 20.52%
